In PMC10726135:
Some of the results follow. At the low end of the ranking the order means little. The protein was read in a cell extract, so binding may be indirect.

Biological target: T1, HNF4alpha8 (COS-7 nuclear extract) (UniProt P41235-5)
T1 sequence: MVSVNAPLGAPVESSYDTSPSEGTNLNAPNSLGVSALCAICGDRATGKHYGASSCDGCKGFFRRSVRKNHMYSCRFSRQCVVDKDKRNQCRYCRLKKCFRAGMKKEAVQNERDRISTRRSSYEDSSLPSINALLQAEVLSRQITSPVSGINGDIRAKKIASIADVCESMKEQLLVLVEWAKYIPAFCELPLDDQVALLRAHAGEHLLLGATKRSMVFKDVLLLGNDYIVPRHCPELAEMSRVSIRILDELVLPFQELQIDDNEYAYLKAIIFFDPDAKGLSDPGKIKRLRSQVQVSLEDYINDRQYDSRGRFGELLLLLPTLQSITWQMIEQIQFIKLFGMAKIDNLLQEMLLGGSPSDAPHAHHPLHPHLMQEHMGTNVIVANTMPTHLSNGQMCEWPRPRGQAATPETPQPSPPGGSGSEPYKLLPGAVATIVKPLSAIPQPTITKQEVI
Test: protein-binding microarray
Conditions: COS-7 nuclear extract on double-stranded Agilent 4x180k PBM; binding buffer, salt, pH and temperature not given; high values mean tight binding; double strand, one strand shown; sequences stand for … in …GCCTAGGGAGATTAGAGTATCGGTCGA

| Sequence | binding signal (log2 normalized intensity) |
| --- | --- |
| CCCCGCCTTGGCCTCCCGGAGAGGCCCCGC | 2.79 |
| CTGCAAACAGTGAGCCCAGTGGAGTAGGCT | -1.27 |
| TATCGGTCACCATAAAACATTCTATTCTAT | -1.31 |
| AGGCAGCAGCTCCAATTAGGAGATCAGCCC | -1.25 |
| CATAAACTCCAACTCAGCCCCCAGCATTAT | 4.96 |
| CCCATCCGCAGTGGGAGAGCAAGGGTCAAG | 4.51 |
| AACAACGGCGGCCCAGTCAAACCCCGCGCT | -1.27 |
| ACAAAGGGCAAAGTCCCCTTTCCTCATATT | 5.5 |
| AGTCTCCGAGGAACCCAGACTGCATTTTCA | -1.39 |
| GATAAAGCAGGTTGTACCTTGACCCAAGAA | 5.6 |
| GCTGTCACTGGCTGCTGCTCAGGAGACCGA | -1.2 |
| TCAGCTGCCACTGGAAGCTCTTCTGTGCCT | -1.33 |
| TTTTGAATGACAGTGTCAGGACCTTGCTCC | 2.73 |
| GCCGACTGCCAGGAGGGGACTTCAAAGGCT | -1.21 |
| GCTACAAAGATTGCATGAGATTTTGCTCAA | -1.33 |
| GTATTGAGATAAGCAAGACTGCAGGGTCAT | 2.04 |
| AATCTTGATAATGCCCTGACCCTAGATGAG | 2.11 |
| AGGAGGAGCCAGTGAAGACTGAAAAGAGAT | -1.31 |
| AAGGGCAGCAGTAACCCCCCAGGAGCGAGT | 3.82 |
| ACAAAGCCCATGCTGGACCCTGGGCTTAGT | 3.18 |
| TGTCTCCCTCTGCAGCAAAGTCCAGGCATA | 1.76 |
| ATAACAGTGTAAGGACATTGCCCCCTATGT | 5.06 |
| AAGCAGCAAACCAGATAAGACTATCTCATG | -1.33 |
| TTTGTCACATTCCAGACTTTGTACAAGGGC | 3.1 |

| Sequence | binding signal (log2 normalized intensity) |
| --- | --- |
| CTCCGACCCCACGGACTTAAATTGTGCTGT | 0.721 |
| GAACATTAACTCTCTGTGAGTGTGTTGGCA | 0.99 |
| TTGCCCAGCTGTTCCGTGTTCCAGAGCCTC | -0.808 |
| ACCTAGGGGACATTCTTTAGAGGCTGGGTG | 0.525 |
| AGAGTTGAACCCTTGGGGCTTTTGCAATTT | 2.16 |
| GGTGTTCCTGAGTAAATCTCACATTCGTTA | 0.57 |
| AACTAAGAACACAGTCATTTATTCACTTAT | -0.544 |
| GTTTTCAAACAATGAGAGGCAACATTCCCA | -1.3 |
| TGGGGACAGGGATTAAGTACCGCTCCTCTC | -1.31 |
| GGAGCTGTGGGCCTCACACCCTCTAGGGTA | -1.43 |
| TTTTAAATACCTTTTTGGGACTGATAACTT | 1.23 |
| CACCTTTGAAATCTCAAATAGCTGGGTCTC | 0.777 |
| ATTACTTCTCAACTGATATGGCTCTGTTTT | 0.533 |
| GAGCTTCTGTCTTGGACTGCGAAAGATAAA | 1.08 |
| CTCTGAGATTCGGTGAGGGATTGTTTAGGT | 0.829 |
| CTCTTGTAATTTAAGTGGTTCACAAACATT | 0.823 |
| CAAGGCAGCTCAGCTAGTGAGATACGGCCT | -1.26 |
| TTTTTTCAAGTGTTAGCTGTTTCCAAATAT | 0.664 |
| TCTGTTTGAGGTTCACTGGGGAGACTCTCT | 0.00246 |
| GAAATACAGTAGACTTTTTTTTTCTTAATT | -0.353 |
| GCCCAGCAGAGCAGTTTAGAGAAAGGGTCA | 2.77 |
| TGACACAGCCACAAAAACCAAAGGTCACTT | 5.08 |
| CTGGTGGAGGGGACCTTTTCCTCGGGTGTC | 1.34 |
| CTAGTTCATTAAACATGTTTACTCTGGTCC | 1.59 |

| Sequence | binding signal (log2 normalized intensity) |
| --- | --- |
| TTTGCAAGTGGAGATTTCAGCCGCTTTGAG | -1.45 |
| ATGCAAACAGCAGCCACATTCCATGAGCTG | -1.21 |
| TTTTTAGATAGTGACTTGAAAGGGACTTAG | 0.258 |
| ACCCAGAACCCCCAGGTCACCCACAACCTA | 3.97 |
| TTTTAAAATAGATAAGTCCCTAAGAGGAAT | -1.3 |
| AAAGCCAGCTGTCTATCCTTATTTATCTTC | -1.31 |
| ATTAACCAAAGCTACACAGATAAGCCATTC | -1.31 |
| GGAATGGCAGTGCTTGTCCAAGATGGCAAT | -0.946 |
| CTGCACTGACACTGTCCCAGCTGAGATTCA | -1.41 |
| ATCAGCAGCCCAGCATACCATTCCCACCCC | 4.27 |
| TCAATGACTACCTGTTACCCACCTGATATT | 1.23 |
| CCGATCCTTACTATTAGGTCTTTGAAGTTG | 1.77 |
| TCACCTGGAGAAGCAGAAGCTGCACACATG | -1.3 |
| GGGTCATTTTATGGGAAAACAGAATGGTCT | 1.88 |
| CAGCAGGAGACCTGAAACTAGACCAAGAAG | -1.38 |
| GGATTGTTACATCATAGTGTTTGCCTTATT | 1.93 |
| CTCATTTATTATTTGTCTGGGTTATCAGTC | 1.66 |
| TCGGGGCATGCACTGTTTGCCATAGATCCC | -0.985 |
| CTTAGCAGAAGCCCTCCTGGACATTGTGTG | 2.13 |
| CCTTTGATCTCCGTGTTTGGAATTGTGTCA | 2.53 |
| CGGGTGTTTCTGGGAGTTGTGGTCCGCAGG | 1.29 |
| TCAAGTGTGCACACTTAGAAAATGCCCTCA | 3.29 |
| TCTGCTGTTTGTTTCACTAATGTAGATTTT | 1.38 |
| TTCAGAGGCCAGCAGTGCTTTTCCCAGGAA | -1.34 |

| Sequence | binding signal (log2 normalized intensity) |
| --- | --- |
| CTTTTCCTTTTTGCATGAGAATCTGACCTT | 4.72 |
| ATAGACTTAAGTCTGAATTCTAGTCCTATC | -1.38 |
| TTCTGTTCAATGGTGCTTTTGATATTGTTG | 1.79 |
| TTGGGGCTGATGTGCACAGTCCACAGAAAC | 0.33 |
| GACTCGAATGCGAACCTGTCTCCAGAGGAC | -1.45 |
| TAGTTAGGGCCTTGCAGGGGGCCTCCTGCC | -1.18 |
| CATTCTTTCCAGCTTTGATAGTCTGCTACC | 1.21 |
| TTCCCCATATTCGTCCAGTTACTGAAAGGG | 0.831 |
| GGCATCTAACCTTCGTCCTTGCCCCTGGCT | 2.95 |
| AGTCAATCCCGTGGACTTTGCCTGCCCATC | 5.08 |
| GCAACTGGTGAGCAGGTTAATTATAATCGC | 0.111 |
| GAGAACAGGTTCATTCTTTAAGTGTGGGGT | 1.39 |
| TACATTTGACTGAGGTGCAGGACAAAGTGT | 0.876 |
| CCTGTGACCAAGAATGCCTAACCTCCTAGG | -1.36 |
| AACCATCTGGCTTGGCCCCCGGACCCAAAG | 4.32 |
| AAAGCCCATTAAATCTTCCCTCCTGTGAAC | 0.689 |
| GCATGACTACATTCTTTGAAGACTAGGCTC | -1.29 |
| ACAAAGCCTGGGGTTTGGCTCCAAGGCTGA | -1.28 |
| CCACTGAGACGGGCTGAGGATGAGGACTTT | 3.17 |
| TCTGATACATTGGACAACTGTACTTTGGAC | 8.02 |
| GATAAGGCGTCTTATCAGCCCCCATGTCAG | 3.45 |
